{"source": "the supplement of paper PMC4604168 (melanoma cell lines)", "note": "Some of the results follow. Single values are uncertain, as repeats are few or missing.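 Note: cell number obtained by counting DAPI-stained nuclei in high-throughput microscope images with image analysis software, screen run in 1,536-well plates.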"}
{"test_system": "MEL-HO", "experiment": "cell count relative to DMSO control; melanoma cells; higher = more viable cells", "details": "library dose: low library concentration; 72 h", "units": {"cell count": "%"}}
{"compound": "CS(=O)(=O)CCNCc1ccc(-c2ccc3ncnc(Nc4ccc(OCc5cccc(F)c5)c(Cl)c4)c3c2)o1", "note": "[lapatinib] + COc1ccc2c(c1)CCC1C2CCC2(C)C(NCCCCCCN3C(=O)C=CC3=O)CCC12 [U73122] (first compound 0.8 µM, partner dose 0.4 µM)", "cell count": 93.7}
{"compound": "CNC(=O)c1cc(Oc2ccc(NC(=O)Nc3ccc(Cl)c(C(F)(F)F)c3)cc2)ccn1", "note": "[sorafenib] + O=C(Nc1ccccc1)c1cc([N+](=O)[O-])ccc1Cl [GW9662] (first compound 0.4 µM, partner dose 2 µM)", "cell count": 110}
{"compound": "CS(=O)(=O)CCNCc1ccc(-c2ccc3ncnc(Nc4ccc(OCc5cccc(F)c5)c(Cl)c4)c3c2)o1", "note": "[lapatinib] + COc1ccc(-c2ccc3c(N4CCOCC4)nc(N4C[C@@H](C)O[C@@H](C)C4)nc3n2)cc1CO [KU0063794] (first compound 0.8 µM, partner dose 0.02 µM)", "cell count": 92.8}
{"compound": "CS(=O)(=O)CCNCc1ccc(-c2ccc3ncnc(Nc4ccc(OCc5cccc(F)c5)c(Cl)c4)c3c2)o1", "note": "[lapatinib] + O=C1NC(=O)/C(=C/c2ccc(-c3ccc(F)cc3O)o2)S1 [AS252424] (first compound 0.8 µM, partner dose 1 µM)", "cell count": 76.7}
{"compound": "CNC(=O)c1cc(Oc2ccc(NC(=O)Nc3ccc(Cl)c(C(F)(F)F)c3)cc2)ccn1", "note": "[sorafenib] + COc1cc(N2CCC(N3CCN(C)CC3)CC2)ccc1Nc1ncc(Cl)c(Nc2ccccc2S(=O)(=O)C(C)C)n1 [NVP-TAE684] (first compound 0.4 µM, partner dose 0.08 µM)", "cell count": 90.2}
